The results in this text go back to the RNAGym collection of RNA variant scans (doi:10.7554/elife.90254).

Read counts are not given, so values of variants with three or more changes are uncertain.

B1: LINE1-mini (parent)
chain: GGCAGAGCUCAACACAGCGUGGCAAAGUGGCUGUGGCUAGACUGCC

The variants in the series derive from B1. The series is described as follows: self-cleavage, relative activity (ratio to wild type); higher = more cleavage; in vitro, sequencing; the parent is a self-cleaving ribozyme.
As to A25G A26G A39G, the self-cleavage worked out at 0.03.

Regarding A24U G30U C31A U34C, the self-cleavage worked out at 0.21.

Turning to A24U U43C C46U, the self-cleavage worked out at 0.13.

Consider A25U C37G U38G, for which the self-cleavage came to 0.01.

Regarding A26C G29A C31A A41C U43G, the self-cleavage is 0.05.

On to A24U C31U G33C, for which the self-cleavage came to 0.01.

For A24U A25U G29C G40A A41G, the self-cleavage was determined as 0.11.

For A25C G35U A41C, the self-cleavage came out at 0.02.

Take A25U G35A C42G: the self-cleavage was 0.01.

Regarding A26C G36A G44C, the self-cleavage was 0.12.

As to A24U G29U G30U C31U, the self-cleavage is 1.09.

Take A24U C31G G36A: the self-cleavage turned out to be 0.04.

Take A25G G30C G36C U38C G40U: the self-cleavage was found to be 0.04.

For A26G G33C G35A C42U, the self-cleavage was 0.

Regarding A26C G30C C31A G40U, the self-cleavage stood at 0.03.

A24G G30U U43A: the self-cleavage is 0.2.

As for A26C G29U U38C, the self-cleavage was 0.33.

As to A26C G29A U38C C46A, the self-cleavage was 0.22.

Take A24U G40U U43A: the self-cleavage was found to be 0.1.

On to A26G C31G U34C, for which the self-cleavage came to 0.02.

Regarding A25G G40C C45A, the self-cleavage is 0.07.

For the variant A25U U38A A39C, the self-cleavage was 0.12.

Regarding A24G G30U C31U, the self-cleavage amounted to 0.03.

For the variant A25C G27A C37U, the self-cleavage turned out to be 0.08.

For A26C G36A C37U U38G, the self-cleavage came to 0.02.

As to A24U A26G G30C, the self-cleavage was found to be 2.96.

With A24G G36A G40U G44C, the self-cleavage was 0.03.

For A25U G27U G30A C31A, the self-cleavage was 0.13.

As for A24U G30U U43G, the self-cleavage came out at 0.

As for A26G U38A A39G C42U, the self-cleavage is 0.1.

Turning to A25C G27U G44U, the self-cleavage is 0.13.

With A25G U38A A39U G44C, the self-cleavage is 0.11.

Turning to A24G U34C C37U, the self-cleavage came out at 0.05.

For the variant A25G G27A G35U, the self-cleavage was 0.09.

A24G U34C G40C: the self-cleavage stood at 0.01.

As for A26C C42A C45U, the self-cleavage is 0.22.

Turning to A25C A26U U38G U43G, the self-cleavage is 0.02.

With A25U G33C C46G, the self-cleavage was 0.04.

For the variant A25U U28C U32A, the self-cleavage was found to be 0.21.

Regarding A26C G33A G35U C37U, the self-cleavage came out at 0.05.

Consider A26G G33A U34A, for which the self-cleavage came out at 0.02.

For A24U A26G G29C, the self-cleavage was determined as 0.34.

On to A26G U32G A41G C45A, for which the self-cleavage was 0.

As to A25G U32A U38A, the self-cleavage was 0.06.

As to A25C G33C U43A, the self-cleavage was determined as 0.06.

In the case of A24U A26C G27U C37A U38C A41G, the self-cleavage was 0.03.

For A26C G27C C46A, the self-cleavage is 2.09.

With A25G G40U U43C C45G, the self-cleavage amounted to 0.26.

With A25G C37G G44U, the self-cleavage was found to be 0.02.

Turning to A26C U28A G35U G36U A41U, the self-cleavage is 0.1.

For A24G U28G C45U, the self-cleavage amounted to 1.08.

For the variant A24U G27A U38G, the self-cleavage amounted to 0.

For A25U C42U C46A, the self-cleavage is 0.01.

With A25C G30C G44A, the self-cleavage was 0.1.

On to A25U C37U C42U U43C, for which the self-cleavage was 0.04.

In the case of A26C G29U U38C G44U, the self-cleavage turned out to be 0.02.

Consider A25C U32A A41U, for which the self-cleavage is 0.01.

With A24U G27U C37U, the self-cleavage worked out at 0.05.

On to A25U U32A A41U, for which the self-cleavage amounted to 0.21.

For the variant A25C G30C C31A G33U U34C C37U A39G C46A, the self-cleavage was 0.01.

For A26U C37U C46G, the self-cleavage is 0.02.

For A25G A26U G33A U38G, the self-cleavage was found to be 0.02.

In the case of A25U U28G U43G, the self-cleavage turned out to be 0.15.

Take A25G A41C U43C: the self-cleavage was determined as 0.04.

Take A24G G30C C37U C42U: the self-cleavage turned out to be 0.09.

For the variant A25C G36A U38A C42G, the self-cleavage amounted to 0.

Regarding A25C A26C C37G A39G C42U, the self-cleavage was determined as 0.05.

On to A25U G27C U34C A41U, for which the self-cleavage stood at 0.08.

A25U G29U G35U: the self-cleavage was found to be 0.03.

Take A25C U34C C37G: the self-cleavage is 0.03.

On to A24U A26C G33U U34G G40U, for which the self-cleavage was 0.03.

Take A26U G27U G29A: the self-cleavage amounted to 0.99.

A24U G30A C31A G44U: the self-cleavage was 0.02.

Regarding A25G U32A G40U, the self-cleavage was 0.09.

Regarding A25U A26U C37U C42U, the self-cleavage turned out to be 0.07.

Regarding A26U G27U A39C, the self-cleavage came out at 0.11.

As for A25U G27U G30U U32C C42A, the self-cleavage came out at 0.06.

Turning to A24U G27U G30C, the self-cleavage was determined as 1.72.

For the variant A25C G29A C42A, the self-cleavage came to 0.08.

As for A26C G27C C42A, the self-cleavage was 0.21.

As to A24G G36A A39G G44A, the self-cleavage was determined as 0.61.

With A26C C31A C46A, the self-cleavage turned out to be 0.37.

Take A25U G27U U28C G30C G35C G40C C46G: the self-cleavage came to 0.01.

Take A25G G40A A41C: the self-cleavage was 0.03.

Take A25G A26G G33A: the self-cleavage was 0.02.

As to A25C G35U C42A, the self-cleavage was found to be 0.03.

For A24U G29U U38C, the self-cleavage amounted to 1.53.

For the variant A26U G27A U34A U43G, the self-cleavage was 0.

For A26U C31A G36C, the self-cleavage is 0.05.

A25G U28A U34A: the self-cleavage came out at 0.02.

For A25U G35U C37A, the self-cleavage amounted to 0.03.

On to A25U U32A G33U U34A, for which the self-cleavage is 0.

Take A26G U28A U32G: the self-cleavage is 0.1.

For A26C U28G C37U G44C, the self-cleavage came to 0.09.

As for A24U G27A U32A, the self-cleavage came to 0.08.

As for A25G A26G A41G U43C, the self-cleavage was determined as 0.01.

As to A25G G29A G33A, the self-cleavage turned out to be 0.2.

Turning to A25U G27A U28A, the self-cleavage was found to be 0.41.

For the variant A24U G30U G35C U38C C42U, the self-cleavage stood at 0.06.

Take A25G G36C C42G G44C: the self-cleavage amounted to 0.04.

As for A24U G35C A41C, the self-cleavage is 0.03.

A24U G30U C42G: the self-cleavage amounted to 0.04.

Take A25C G29U C31G C42G: the self-cleavage worked out at 0.01.

On to A25U U34C G36U G40A, for which the self-cleavage came out at 0.06.

Take A24U G29A C31A G33C: the self-cleavage was determined as 0.01.

Consider A24G G33A C37A, for which the self-cleavage was found to be 0.07.

Turning to A24U G30C G36U G40U, the self-cleavage amounted to 0.07.

Consider A26C U32C U43G, for which the self-cleavage was 0.

A25G G33A C45A: the self-cleavage amounted to 0.04.

Regarding A24U G33C G40A, the self-cleavage came to 0.05.

Take A25U C37U A41U: the self-cleavage is 0.03.

Take A25G A26U C46G: the self-cleavage was 0.13.

With A25U G27A G33C C46A, the self-cleavage was found to be 0.03.

A26G U28A G35C: the self-cleavage turned out to be 0.02.

Consider A26C G30C C31A, for which the self-cleavage was 0.19.

Regarding A26G A41G G44A, the self-cleavage amounted to 0.04.

Take A26C U32C G40U: the self-cleavage turned out to be 0.03.

For the variant A24G U32G C37A U43A, the self-cleavage was 0.02.

On to A25U U34A C45G C46U, for which the self-cleavage turned out to be 0.04.

In the case of A24U G40A C42G G44C, the self-cleavage was 0.06.

As for A25C U32C G36A, the self-cleavage is 0.01.

On to A24U G29U C37A U43A C46U, for which the self-cleavage came to 0.04.

As to A24U G33A A39U G40U, the self-cleavage amounted to 0.06.

Consider A25C U38G G40A, for which the self-cleavage turned out to be 0.

In the case of A25U A26C C45U, the self-cleavage worked out at 0.81.

Consider A26G A41U C45U, for which the self-cleavage turned out to be 0.42.

Consider A26G G30A U32A, for which the self-cleavage turned out to be 0.12.

For the variant A24U U43A G44A, the self-cleavage was found to be 0.08.

In the case of A24U G29U G36C C37G, the self-cleavage was 0.04.

A26C C42G U43C: the self-cleavage was 0.02.

Regarding A26G U32A G44A, the self-cleavage is 0.03.

For the variant A26U G27U C45G, the self-cleavage worked out at 1.04.

For A24U U28G G33U, the self-cleavage turned out to be 0.03.

As for A25U U32C A39C C46A, the self-cleavage was found to be 0.04.

With A26C G30A G33U C37A, the self-cleavage stood at 0.03.

As to A25G G33A G40A, the self-cleavage is 0.04.

For A26G U43A G44A, the self-cleavage amounted to 0.18.

On to A24U A26C G27C A41C, for which the self-cleavage amounted to 0.03.

With A26C G40C C42U, the self-cleavage was 0.

A24U G40A G44U: the self-cleavage was 0.13.

Regarding A26G C31U G36A, the self-cleavage was 0.07.

As to A25U G27U C46A, the self-cleavage stood at 0.19.

Consider A25U U28A G36C, for which the self-cleavage is 0.1.

Regarding A25C G36A A39C, the self-cleavage is 0.12.

A25C A26C G36A G44U: the self-cleavage was 0.25.

On to A26C G30C G44C, for which the self-cleavage turned out to be 0.3.

On to A25U G33U G44C, for which the self-cleavage is 0.06.

For A25G G29A U34C G35A, the self-cleavage came to 0.11.

For the variant A24U G29C C31U C37A, the self-cleavage was 0.01.

For the variant A24U A26U C46G, the self-cleavage was determined as 1.91.

Turning to A24U G36U U38G, the self-cleavage came to 0.02.

Consider A24U G30C C46A, for which the self-cleavage came out at 1.97.

In the case of A24U U28G G40A, the self-cleavage is 0.05.

Take A25G G30A U38A G44U: the self-cleavage was 0.11.

With A25U U32A C45A, the self-cleavage stood at 0.14.

As for A25G G29A G35U, the self-cleavage was 0.09.

For the variant A26C C37U G40A, the self-cleavage was found to be 0.1.

As to A26G A41C U43A, the self-cleavage stood at 0.03.

With A24U G36C C37G, the self-cleavage worked out at 0.07.

In the case of A25U A39G G44U C45U, the self-cleavage was determined as 0.03.

With A25G G29C G30A A41G, the self-cleavage was found to be 0.11.

As for A25U G35C A39U, the self-cleavage came to 0.

With A25G U32A G35U, the self-cleavage is 0.11.

On to A25U U34A G44A C46G, for which the self-cleavage was 0.

For A26G G29U U43C, the self-cleavage came to 0.18.

Regarding A24U C31A G35U G40U, the self-cleavage came to 0.03.

In the case of A25U A26C U43A C46A, the self-cleavage was determined as 0.05.
